In PubChem BioAssay AID624202 (National Center for Advancing Translational Sciences (NCATS), 2012):
The campaign covered roughly 380,000 compounds. About 4,000 (1.1%) were called active. Inconclusive results, whose numbers are uncertain, are shown with a selection of clear calls. Calls follow the shape of the dose curve; as a rule, active = well fitted activation curve with a large enough effect; inconclusive = small, poorly fitted or top-dose-only effect; inactive = no such curve, though single readings can be large or run the other way. Potencies of inconclusive entries are doubtful fits and often do not repeat.

assay: qHTS Assay to Identify Small Molecule Activators of BRCA1 Expression; details: MCF7-BRCA1-FFLuc reporter, luminescence, 48 h; activation: at 46.1 µM (top of the series), scaled: vehicle 0%, 10 µM genistein 100% unless noted; also: nearly all actives have a fitted effect of over 80% in size
Summary of the method: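 48 h compound treatment of MCF7-BRCA1-FFLuc cells (phenol-red free MEM, 37 °C), then 15 min with luciferase substrate and luminescence imaging.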
Potency is read from the fitted curve at half-maximal effect; tags tell the direction and shape of the fitted curve.

Structure (SMILES)	Potency	activation
C=CCn1c(C)cc(C(=O)COC(=O)c2cncc(Br)c2)c1C	inconclusive: 12.6 µM [activator, partial curve, poor fit]	
CCN(CC)C(=N)/C(C#N)=N/Nc1ccc(C)cc1	inconclusive: 1 µM [activator, full curve, poor fit]	
C=CCN(c1ccccc1OC)S(=O)(=O)c1cccc(C(=O)OCC(=O)c2c(N)n(C)c(=O)n(C)c2=O)c1	inactive	
O=C(OCC(=O)N1CCN(c2ccccc2)CC1)c1ccccc1[N+](=O)[O-]	active: 12.6 µM	
COc1cc(C)nc(N2CCCC(C(=O)NC3CCC(C)CC3)C2)n1 (stereo not given)	active: 3.55 µM	
O=C(Nc1cc2c(cc1Cl)OCCCO2)c1ccco1	inconclusive: 1.58 µM [activator, partial curve, poor fit]	
Cc1ccc(C(=O)Nc2cccc(-c3ccc(N4CCOCC4)nn3)c2)cc1C	inconclusive: 1.26 µM [activator, partial curve, poor fit]	
CN1C(=O)NC2(O)C(=O)c3ccccc3C12O (stereo not given)	inactive	
O=C(NC1CCN(Cc2ccccc2)CC1)c1cccc(NS(=O)(=O)c2ccc(Br)cc2)c1	inactive	
O=C(NCCSc1ccccc1)c1cncc(Br)c1	active: 7.94 µM	
Cc1ccc(Nc2nc(N)nc(CCl)n2)cc1	inconclusive: 3.16 µM [activator, full curve, poor fit]	
Cc1ccsc1C(=O)Nc1ccc(OCc2ccccc2)cc1	inconclusive: 0.794 µM [activator, full curve, poor fit]	
O=[N+]([O-])c1ccc(C=NN2CCCCCC2)cc1	inconclusive: 2 µM [activator, partial curve, poor fit]	
CC1CN(c2ccc(Cl)cc2[N+](=O)[O-])CCN1S(C)(=O)=O (stereo not given)	inactive	
Cc1nc2ccc(NC(=O)c3cc(Cl)ccn3)cc2s1	inconclusive: 1 µM [activator, full curve, poor fit]	
O=C(NCCc1ccccc1)c1ccc(-c2ccccc2Cl)o1	inconclusive: 31.6 µM [activator, single point]	
C=C(C)CSc1nncn1/N=C/c1ccc(OC)cc1	active: 7.94 µM	
CCCCN1C(=O)/C(=C2\SC(N3CCCCC3)=NC2=O)c2ccccc21	inconclusive: 7.08 µM [activator, partial curve, poor fit]	
COc1ccc(NC(=O)c2cccc(OC(F)F)c2)cc1Cl	inconclusive: 7.94 µM [activator, partial curve, poor fit]	
CCn1cnc2cc(NCc3ccccc3Cl)ccc21	inconclusive: 3.98 µM [activator, partial curve, poor fit]	
COC(=O)C1CCN(C(=O)C2CC(=O)N(c3ccc(C)c(Cl)c3)C2)CC1 (stereo not given)	inconclusive: 12.6 µM [activator, partial curve, poor fit]	
COc1ccc(OC)c(/C=C2\C=Cc3ccccc32)c1	inactive	
O=C(COC(=O)c1cccc([N+](=O)[O-])c1)c1ccc(OCc2ccccc2)cc1	active: 5.01 µM	
c1cn2cc(CSC3CCCCC3)nc2s1	inconclusive: 2.51 µM [activator, full curve, poor fit]	
CCOC(=O)CN1C(=O)CCSc2ccc(Cl)cc21	inactive	

Structure (SMILES)	Potency	activation
Cc1ccc(CC(=O)O/N=C(\N)c2ccccn2)cc1	inconclusive: 2.82 µM [activator, full curve, poor fit]	
O=C(Nc1nc2ccccc2[nH]1)c1cccc(Cl)c1	inconclusive: 0.562 µM [activator, full curve, poor fit]	
CCn1cnc2cc(NC(=O)c3ccc(C)cc3)ccc21	active: 4.47 µM	
CC(C)(C)c1ccc(OCc2cc(=O)n3c4c(sc3n2)CCCC4)cc1	inactive	
CC(=NNc1nc2ccccc2o1)c1cc2ccccc2cn1		inconclusive: -89.3% [activator]
Cc1ccc(C(=O)Nc2nc(-c3ccc4c(c3)OCCO4)cs2)o1	active: 8.91 µM	
COc1cccc(NC(=O)Nc2cc(-c3cn4cccnc4n3)ccc2OC)c1	inconclusive: 35.5 µM [activator, single point]	
CCOC(=O)c1ccc(NC(=O)Nc2ccccn2)cc1	active: 5.01 µM	
CC(C)(C)C(=O)CC(=O)Nc1ccc(Cl)c(N)c1	inconclusive: 14.1 µM [activator, partial curve, poor fit]	
CCCCC(=O)Nc1ccc(C(=O)NCCc2ccccc2)cc1	inconclusive: 7.94 µM [activator, partial curve, poor fit]	
Cc1ccccc1NC(=O)CSc1nc2ccc(NC(=O)c3ccco3)cc2s1	inactive	
CC(=NNC(N)=S)c1ccc2cc3c(cc2c1)OCO3	inconclusive: 2.24 µM [activator, full curve, poor fit]	
COc1ccc(NC(=O)Nc2ccc(N(C)C)cc2)cc1	inconclusive: 3.16 µM [activator, full curve, poor fit]	
O=C(CSc1nnc(-c2cccc(Cl)c2)o1)Nc1ccc2c(c1)OCCO2	active: 7.94 µM	
COc1cc(/C=C2/C(=N)N3C=CSC3=NC2=O)ccc1OCCCOc1ccccc1C	inconclusive: 11.2 µM [activator, partial curve, poor fit]	
CC(=NNc1nc2ccccc2o1)c1ncccn1		inconclusive: -79.2% [activator]
Cc1ccc(C)c2[nH]c(=O)c(CN(CC3CCCO3)C(=O)NC3CCCCC3)cc12 (stereo not given)	inactive	
Cc1nn(CCOc2ccccc2)c(=O)n1-c1ccc(Cl)cc1	inconclusive: 11.2 µM [activator, partial curve, poor fit]	
COc1ccc(Nc2nc(C)c(-c3ccccc3)s2)cc1	inconclusive: 7.08 µM [activator, partial curve, poor fit]	
CN(/N=C/c1ccc(O)cc1O)c1ncc(C(F)(F)F)cc1Cl	inactive	
COC(=O)c1ccc(COC(=O)c2ccc(N(C)C)cc2)cc1	active: 5.01 µM	
CC(=O)c1cccc(OCc2cc(C(=O)N3CCSCC3)no2)c1	inconclusive: 10 µM [activator, partial curve, poor fit]	
COc1cc(OC)c2c(c1)O/C(=C\c1ccccc1)C2=O	inconclusive: 6.31 µM [activator, partial curve, poor fit]	
COc1ccc(Nc2ncnc3ccccc23)cc1	active: 7.94 µM	
O=C(c1cnn(-c2ccc(Cl)cc2)c1)c1ccccc1O	inconclusive: 0.631 µM [activator, full curve, poor fit]	

Structure (SMILES)	Potency	activation
Cc1ccc(-c2nc3cc(N)ccc3o2)c(C)c1	inconclusive: 0.501 µM [activator, full curve, poor fit]	
CCC/C(=N\NC(=O)c1csc(C)c1C)c1cccs1	inconclusive: 2.82 µM [activator, full curve, poor fit]	
O=C(NC(=S)Nc1ccc(Cl)cn1)C12CC3CC(CC(C3)C1)C2	inconclusive: 11.2 µM [activator, partial curve, poor fit]	
CCOc1ccc(NC(=O)N2CCC(C(=O)c3ccc(F)cc3)CC2)cc1	inactive	
Cc1cc(C)n(CC(O)COc2ccc(Cl)cc2Cl)n1 (stereo not given)	active: 11.2 µM	
CCCCNC(=O)C(=O)N/N=C/c1cccc(Br)c1	inactive	
O=C(CCSc1ccc(Cl)cc1)N1CCOCC1	active: 7.94 µM	
COCC(=O)n1nc(-c2ccccc2)nc1NCc1ccccc1	inconclusive: 12.6 µM [activator, single point]	
Cc1cc2nc(-c3cccc(NC(=O)c4ccc(Br)o4)c3)oc2cc1C	inconclusive: 22.4 µM [activator, single point]	
O=C(Nc1ccon1)c1ccc(N2CCCCC2)c([N+](=O)[O-])c1	active: 12.6 µM	
O=C(COC(=O)CNC(=O)c1ccc([N+](=O)[O-])o1)Nc1ncc(C(F)(F)F)cc1Cl	inactive	
O=C(NCCSCc1c(F)cccc1Cl)c1ccco1	inconclusive: 20 µM [activator, single point]	
O=C(CSc1ccccc1C(=O)O)c1ccc(Cl)cc1	active: 10 µM	
COc1ccc(/C=C2\CCC(C3CCCC3)C2=O)cc1 (stereo not given)	inconclusive: 10 µM [activator, partial curve, poor fit]	
COc1cc(-c2cc(=O)c3ccccc3o2)ccc1O	inconclusive: 10 µM [activator, partial curve, poor fit]	
CCOC(=O)C(=CNc1ccc(O)c(C(=O)OC)c1)C(=O)OCC	inactive	
CC(C)N=c1scc(-c2ccco2)n1/N=C/c1ccc(O)c(O)c1	inactive	
O=C(Nc1ccccc1)c1ccc(NC(=O)C2CC2)cc1	active: 3.98 µM	
COc1cccc(C2=NN(S(C)(=O)=O)C(c3cccs3)C2)c1 (stereo not given)	inconclusive: 12.6 µM [activator, partial curve, poor fit]	
O=C(O)c1ccc(N=Nc2c(O)[nH]c3ccccc23)cc1		inconclusive: -63.5% [activator]
CC(C)C1Cc2[nH]c(=O)c(C(=O)O)cc2CO1 (stereo not given)	active: 8.91 µM	
CC(=O)Nc1ccc(OCc2ccc3c(c2)OCO3)cc1	active: 2.51 µM	
Fc1cccc(CSc2ncnc3c2ncn3C2CCCCO2)c1 (stereo not given)	inconclusive: 2.24 µM [activator, full curve, poor fit]	
O=C(NCCc1c[nH]c2ccccc12)c1ccc([N+](=O)[O-])cc1	inconclusive: 10 µM [activator, partial curve, poor fit]	
C/C(=N\Nc1nc2ccccc2[nH]1)c1cccs1	inconclusive: 1 µM [activator, full curve, poor fit]	
